The structures appear in SMILES notation. The campaign covered roughly 52,000 compounds. About 1,700 (3.3%) were called active. No stated cut-off is given here; in the data, active means survival mostly below about 52% (no sharp cut-off); inactive means mostly above about 56%. Some of the results follow.

For the assay, the system named is Wild type. Description: growth inhibition of S. aureus wild type versus tarO mutant, primary screen, teichoic acid synthesis inhibitors, RN4220, OD600 (AID 463173). The following applies: S. aureus RN4220 wild type/DeltatarO growth, OD600, 18 h, active compounds read low, screened at 18.75 µg/mL (by protocol).
On to `COc1ccc(CNC(=O)CN2CC(C)CC(C)C2)c(OC)c1` (centres undefined), for which the survival was inactive: 114%. The value for `Cn1c(=O)c2c(nc(SCC(=O)Nc3ccc(F)c(F)c3)n2Cc2ccccc2F)n(C)c1=O` was inactive: 110%; that for `CCc1ccc(C(=O)CC2(O)C(=O)N(CCc3ccccc3)c3ccc(Cl)cc32)cc1` (centres undefined) was active: 5%; that for `Cc1nnc(Sc2nc(Sc3nnc(C)s3)nc(N3CCCCC3)n2)s1` was inactive: 102%.

For `COc1ccc(CCNC(=O)C(=O)NCC(c2cccs2)S(=O)(=O)c2ccc(F)cc2)cc1` (centres undefined), the survival was inactive: 73%. Regarding `COc1ccc(NC(=O)CN2CCC(n3c(C)nc4cc(F)ccc43)CC2)c(OC)c1`, the survival was inactive: 114%.

Turning to `O=C(NCCc1ccc(Cl)cc1)C1CCN(S(=O)(=O)c2ccc3[nH]ccc3c2)CC1`, the survival is inactive: 73%. The value for `COc1ccc(-c2noc(CNC(=O)COc3cccc(C)c3C)n2)cc1` was inactive: 81%.

For `O=C(COCc1cc(-c2ccc3c(c2)OCO3)on1)Nc1cc(Cl)ccc1O`, the survival was inactive: 47%.

Take `CC(C)c1ccc(Nc2c(-c3ccccn3)nc3ccccn23)cc1`: the survival is active: -21%. The value for `CCOC(=O)c1c(C)oc2nc(C)nc(NCCCN3CCN(c4cc(C)ccc4C)CC3)c12` was inactive: 105%.

In the case of `COc1ccc(-c2nc(CSCC(=O)NCc3ccccc3Cl)c(C)o2)cc1OC`, the survival was inactive: 70%.

For the compound `C=CCNC(=O)C(C)N1CCN(C)CC1` (centres undefined), the survival was inactive: 95%. For the compound `COc1cc(NC(=O)C2CCN(S(=O)(=O)c3c(C)noc3/C=C/c3ccccc3F)CC2)cc(OC)c1OC`, the survival is inactive: 64%. Take `COc1cccc(/C=C/c2nc(C#N)c(N3CCN(C)CC3)o2)c1`: the survival was inactive: 83%. The value for `CC(NC(=O)c1ccc2c(c1)sc1nc(-c3ccc(F)cc3)cn12)C12CC3CC(CC(C3)C1)C2` (centres undefined) was inactive: 101%; that for `FC(F)(F)c1cccc(Nc2c3c(nc4ccc(Cl)cc24)CCC3)c1` was active: 5%. As to `CCCCCN1C(C(=O)c2ccccc2)=C(OC(=O)CC)c2ccccc2S1(=O)=O`, the survival is active: -4%. Turning to `COc1cc(OC)c(NC(=O)CCc2c(C)nc3c4c(C)cc(C)nc4nn3c2C)cc1Cl`, the survival was inactive: 78%. For `Cc1ccc(CCNC(=O)c2ccc(Nc3nc4ccccc4n4nnnc34)cc2)cc1`, the survival is inactive: 74%. The value for `N#Cc1cc2c(=O)n3ccccc3nc2n(-c2nnc(SCc3ccccc3Cl)s2)c1=O` was inactive: 99%; that for `CCN(CCCNC(=O)Cn1ncc2c([nH]c3ccc(C)cc32)c1=O)c1ccccc1` was inactive: 111%; that for `CCC(Sc1nc2n[nH]c(C)c2c(=N)n1-c1ccccc1Cl)C(=O)N(CC)CC` (centres undefined) was inactive: 131%. The value for `Cc1cccc(NC(=O)c2cc3c(=O)n(Cc4cccnc4)ccc3nc2C)c1` was active: -3%. The value for `COc1ccc(NC(=O)CCn2cnc3onc(-c4ccc(F)cc4)c3c2=O)cc1OC` was inactive: 123%.

In the case of `CC1Cn2c(C(=O)NCc3ccccc3Cl)cc3cccc(c32)S1` (centres undefined), the survival is inactive: 72%. As for `O=C(NCCO)c1ccc2nc(-c3ccco3)c(-c3ccco3)nc2c1`, the survival was inactive: 111%.

Take `CCCOc1ccc(C(=O)N(Cc2ccco2)Cc2ccco2)cc1`: the survival is inactive: 92%. The value for `O=C(NCC(c1cccs1)S(=O)(=O)c1cccs1)c1c(F)cccc1F` (centres undefined) was inactive: 71%; that for `CC(C)c1nn2c(=O)cc(COC(=O)c3ccc(NC(=O)c4cccs4)cc3)nc2s1` was inactive: 73%; that for `Cc1ccc(S(=O)(=O)NCCc2nnc3ccc(SCC(=O)Nc4ccc(F)cc4F)nn23)cc1` was inactive: 89%. The value for `COc1ccc(CCNC(=O)CCc2c(C)nc3cc(-c4cccc(F)c4)nn3c2C)cc1OC` was inactive: 138%. The value for `CCOC(=O)Cn1c(=O)n(CC2CCCO2)c2nc(-c3cc(OC)ccc3OC)nc(C(N)=O)c21` (centres undefined) was inactive: 129%; that for `Cc1ccccc1OCC(=O)Nc1ccccc1OCc1cc(=O)n2ccccc2n1` was inactive: 87%. `COc1ccc(OC(=O)c2nc(SCc3ccccc3C)ncc2Cl)cc1`: the survival is inactive: 96%. Regarding `Cc1cc(C)c2c(CC(=O)Nc3cc(C(F)(F)F)ccc3Cl)coc2c1`, the survival is inactive: 95%.

For the compound `COc1cccc(CSc2nc3n(n2)C(CC(C)C)C(C(=O)Nc2ccccc2C)=C(C)N3)c1` (centres undefined), the survival was inactive: 85%. Regarding `COc1ccc(C(=O)Nc2cccc(C(=O)OCc3cc(=O)n4c5c(sc4n3)CCCC5)c2)cc1`, the survival is inactive: 75%. As for `Cc1ccc(CCNC(=O)CCCc2nnc3n(C)c(=O)c4sccc4n23)cc1`, the survival was inactive: 83%. Regarding `COc1ccccc1-n1c(=O)n(C)c2c(C(N)=O)nc(-c3cccc(OC)c3OC)nc21`, the survival was inactive: 84%. Consider `O=C(C1CCCN(S(=O)(=O)c2cccc3nsnc23)C1)N1CCN(c2cccc(Cl)c2)CC1` (centres undefined), for which the survival was inactive: 63%. The value for `CCN(CC)c1nn2c(=O)c(C(=O)NCCc3cccc(C)c3)cnc2s1` was inactive: 73%. The value for `Cc1ccc2nc(-c3ccccn3)c(Nc3ccccc3C)n2c1` was active: 18%; that for `CCCN1CCc2nc(N3CCN(C)CC3)ncc2C1` was inactive: 119%; that for `COc1ccc(-c2noc(CSc3nc4ccccc4[nH]3)n2)cc1OC` was inactive: 72%. The value for `CCc1cccc(C)c1NS(=O)(=O)c1ccc2c(c1)CC(C)N2C(=O)C1CC1` (centres undefined) was inactive: 80%; that for `Cc1cccc(Cn2c(=O)n(-c3ccccc3C)c(=O)c3c2c2cc(C)ccc2n3C)c1` was inactive: 74%. For `Fc1cccc(CSc2ccc(-c3cccs3)nn2)c1`, the survival is inactive: 86%.

In the case of `COc1ccc(S(=O)(=O)NCCc2csc3nc(-c4ccccc4)nn23)cc1OC`, the survival is inactive: 71%.

Take `CCN1C(=O)C(O)(c2c[nH]c3ccccc23)c2cc(Br)ccc21` (centres undefined): the survival is inactive: 72%. The value for `Cc1ccc2oc3c(c(=O)c2c1)C(c1ccc(O)cc1)N(c1nc(C)c(C)s1)C3=O` (centres undefined) was inactive: 135%; that for `CCC(=O)N1c2ccccc2CC1C(=O)NCc1cc(Br)ccc1OC` (centres undefined) was inactive: 127%; that for `COc1ccccc1C(=O)N(c1ccc(C)cc1)S(=O)(=O)c1ccc(Cl)cc1` was inactive: 71%. The value for `Cc1ccc(CNc2nc3ccccc3n3cnnc23)cc1` was inactive: 88%; that for `Cc1csc2nc(COC(=O)c3ccc(NC(=O)C(C)Oc4ccccc4)cc3)cc(=O)n12` (centres undefined) was inactive: 159%. `CCC(=O)Nc1nnc(S(=O)(=O)N2c3ccccc3CC2C)s1` (centres undefined): the survival was inactive: 84%.

Turning to `CCCC1=Nc2cc(C(=O)N3CCC(C(=O)OCC)CC3)ccc2Sc2ccccc21`, the survival is inactive: 75%. The value for `O=C(OC(C(=O)NC1CCCC1)c1ccccn1)c1cccs1` (centres undefined) was inactive: 109%.

Turning to `COc1ccc(NC(=O)c2cnc(N3CCCC3)nc2)cc1OC`, the survival was inactive: 66%.

For the compound `Cc1cccc(NC(=O)C2CCCN2S(=O)(=O)c2ccc3c(c2)n(C)c(=O)c(=O)n3C)c1` (centres undefined), the survival was inactive: 81%. `Cc1cc(C)c2oc(-c3cccc(NC(=O)c4ccc(-c5cccc([N+](=O)[O-])c5)o4)c3)nc2c1`: the survival was inactive: 66%. The value for `O=C(NCc1cccc(F)c1)c1ccccc1NC(=O)c1nsc2ccccc12` was inactive: 120%. The value for `O=C(c1ccccc1)N1CCc2cc(CNS(=O)(=O)c3ccc(Cl)s3)ccc21` was inactive: 66%; that for `CCNC(=O)c1ccc(C2SCC(=O)N2Cc2ccco2)cc1` (centres undefined) was inactive: 110%.

As to `O=C(CCSCc1cccc(Cl)c1)NCCc1ccc(Cl)cc1`, the survival is inactive: 67%. The value for `COc1ccc(-n2c(SCC(=O)NCc3ccc(F)cc3)nc3c([nH]c4ccccc43)c2=O)cc1` was inactive: 79%. In the case of `Cc1oc(-c2ccc(Cl)cc2)nc1Cn1c(=O)cc(C)c2c(C)nn(-c3ccccc3)c21`, the survival is inactive: 83%. Take `Cc1nn2cc(-c3ccc(OC(C)C)cc3)nc2s1`: the survival is inactive: 85%.

Turning to `Cn1c(=O)n(C)c2cc(N3CCOCC3)c(NS(=O)(=O)c3cccc(C#N)c3)cc21`, the survival is inactive: 76%. On to `COc1ccccc1CNC(=O)CCCCn1c(=O)c2ccccc2n(Cc2ccccc2F)c1=O`, for which the survival is inactive: 116%.

For `CC(=O)Nc1cccc(NC(=O)Cn2cnc3c(oc4ccccc43)c2=O)c1`, the survival is inactive: 97%.

For `Cc1ccc(CNC(=O)CSc2nc3ccccc3nc2Cc2ccc(C)cc2)cc1`, the survival was inactive: 78%. The value for `CCOc1ccc(NC(=O)c2c(C)oc3nc(C)nc(N4CCOCC4)c23)cc1` was inactive: 74%; that for `Cc1ccc(CCNC(=O)C2CCN(S(=O)(=O)c3ccc4c(ccn4C)c3)CC2)cc1` was inactive: 83%.

Turning to `Cc1ccc(-c2nc3c4c(-c5ccccc5)c(-c5ccccc5)oc4ncn3n2)cc1`, the survival was inactive: 72%.

For the compound `Cc1cccc(-c2nc3c(cnn3-c3ccccc3)c(=O)n2-c2ccc(Cl)cc2)c1`, the survival is inactive: 82%. The value for `COc1ccc(S(=O)(=O)NCC(c2ccco2)S(=O)(=O)c2cccs2)cc1F` (centres undefined) was inactive: 75%; that for `COc1ccc(NC(=O)CSc2nc(C)cc(C)c2C(=O)Nc2ccccc2OC)cc1` was inactive: 81%; that for `CCCn1c(=N)c(C(=O)NCC2CCCO2)cc2c(=O)n3cc(C)ccc3nc21` (centres undefined) was inactive: 126%.

Regarding `Cc1cccc(-c2nc(SCc3cc(=O)c4c(C)cc(C)cc4[nH]3)n[nH]2)c1`, the survival was inactive: 85%. With `COCCN(CCOC)S(=O)(=O)c1ccc(C(=O)Nc2sc3c(c2C(N)=O)CCCC3)cc1`, the survival is inactive: 147%. The value for `COc1ccc(S(=O)(=O)N2CCC(c3nc4ccccc4s3)CC2)cc1OC` was inactive: 88%; that for `O=C(Cn1ncc2c3ccccc3n(Cc3ccccc3)c2c1=O)NCCc1ccc(Cl)cc1` was inactive: 96%. The value for `O=C(Cn1nc2c(cc1=O)CCCC2)NCc1ccc(Cl)cc1` was inactive: 82%. On to `Cc1cccc(CSc2cn(CC(=O)N3CCOCC3)c3ccccc23)c1`, for which the survival is inactive: 86%.

`CCCNC(=O)c1ccc2c(c1)N=C(CCC)c1ccccc1S2`: the survival is inactive: 80%. The value for `COc1cccc(NC(=O)Cn2nc(N3CCN(c4ccccc4)CC3)ccc2=O)c1` was inactive: 85%; that for `Cc1ccc(Cl)cc1-n1ncc2c(NCCc3ccccc3)ncnc21` was inactive: 75%; that for `CCN(C(=O)CN1C(=O)c2ccccc2Sc2ccc(C(=O)OC)cc21)c1cccc(C)c1` was inactive: 128%.

The record behind these values is PubChem BioAssay AID463173 (ICCB-Longwood Screening Facility, Harvard Medical School, 2010).
